The campaign covered roughly 270,000 compounds. About 5,800 (2.1%) were called active. Inconclusive means that the source gave no clear call. Such entries were picked first, then a sample of the others. The call rests on the fitted dose curve; in most records, active means well fitted inhibition curve with a large enough effect; inconclusive means small, poorly fitted or top-dose-only effect; inactive means flat fitted curve, though single readings scatter. A potency beside an inconclusive call is a rough fit, not a confirmed value.
biological target: Microtubule-associated protein tau (Homo sapiens) (UniProt P10636); test: qHTS for Inhibitors of Tau Fibril Formation, Thioflavin T Binding; settings: recombinant tau K18 P301L (four-repeat tau fragment), heparin-induced fibrillization, ThT fluorescence; series mostly up to 57.4 µM; activity, negative = inhibition: at the top concentration; further: nearly all actives have a fitted effect of over 55% in size
Method in brief: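 Recombinant human tau K18 fragment […] carrying P301L, 15 uM unlabeled plus 0.24 uM Alexa 594-labeled, was fibrillized with 20 uM heparin in 100 mM sodium acetate pH 7 for 6 hr at 37 C; 30 uM ThT fluorescence read after 1 hr.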
On the % scale 0 is the no-effect control and ±100 the full control effect; potency means the concentration at half of the fitted maximal effect; tags describe the fitted curve by direction and shape.

Sequence of UniProt P10636 (P10636 whole entry, looked up, the tested form may be a part): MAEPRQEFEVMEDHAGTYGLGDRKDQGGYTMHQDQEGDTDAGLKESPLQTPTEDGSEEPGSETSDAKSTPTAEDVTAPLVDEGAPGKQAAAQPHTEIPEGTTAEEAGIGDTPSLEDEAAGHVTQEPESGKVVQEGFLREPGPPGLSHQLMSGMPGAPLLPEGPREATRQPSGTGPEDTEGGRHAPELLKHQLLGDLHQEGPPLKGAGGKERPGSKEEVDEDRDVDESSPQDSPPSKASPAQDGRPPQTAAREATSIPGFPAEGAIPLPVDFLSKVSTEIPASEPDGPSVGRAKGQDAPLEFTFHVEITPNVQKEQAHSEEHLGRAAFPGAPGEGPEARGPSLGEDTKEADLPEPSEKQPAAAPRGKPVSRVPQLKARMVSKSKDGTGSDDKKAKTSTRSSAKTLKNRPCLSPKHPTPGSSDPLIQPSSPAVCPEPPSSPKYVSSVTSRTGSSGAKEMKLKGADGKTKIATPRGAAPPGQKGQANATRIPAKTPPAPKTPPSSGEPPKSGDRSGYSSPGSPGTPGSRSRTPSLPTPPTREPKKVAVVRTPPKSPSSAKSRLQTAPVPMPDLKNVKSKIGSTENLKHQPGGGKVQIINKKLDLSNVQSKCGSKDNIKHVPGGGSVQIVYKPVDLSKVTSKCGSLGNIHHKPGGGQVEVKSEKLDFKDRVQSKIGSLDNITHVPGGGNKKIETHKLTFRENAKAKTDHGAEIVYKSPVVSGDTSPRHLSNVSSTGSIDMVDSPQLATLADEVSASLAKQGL

SMILES | Potency | activity, negative = inhibition
Cc1cccc(N=C2NC(=O)/C(=C/c3cccn3C)S2)c1C | inconclusive: 12.6 µM [inhibitor, partial curve] | –
COc1ccc(-n2nc3c(N)n[nH]c3cc2=O)cc1 | inconclusive: 25.1 µM [inhibitor, partial curve] | –
Cc1cc(C)cc(NC(=S)/C(=C(\[O-])c2ccc(Cl)cc2Cl)[n+]2ccccc2)c1 | inconclusive: 14.1 µM [inhibitor, partial curve] | –
Cc1c(NC(=O)c2nc3ccccc3nc2N2CCCCC2)cccc1[N+](=O)[O-] | inconclusive: 25.1 µM [inhibitor, partial curve] | –
Cc1ccccc1OC(=O)CSc1nnc(-c2ccc(F)cc2)o1 | – | inactive: 3.35%
Cc1ccc(SCc2c(-c3ccccc3)nn(C)c2Cl)cc1 | inconclusive: 20 µM [inhibitor, partial curve] | –
O=C(CCN1CCN(c2ccccc2)CC1)Nc1cccc(Br)c1 | inconclusive: 11.2 µM [inhibitor, partial curve, poor fit] | –
C/C(=N\NC(=S)Nc1c(C)cccc1C)c1cc2ccccc2o1 | – | inactive: -8.38%
N#Cc1cccc(NC(=O)C2CCN(S(=O)(=O)c3ccc4[nH]c(=O)ccc4c3)CC2)c1 | – | inactive: 7.35%
COc1ccccc1-c1c(NC(=O)C(C)C)n(C)c2ccccc2c1=O | – | inactive: -7.09%
COc1ccc2nc(NC(=O)c3cccc(-c4cc5ccccc5oc4=O)c3)sc2c1 | – | inactive: -12.1%
CCOC(=O)c1sc(NC(=O)CSc2n[nH]c(-c3ccc(Cl)cc3Cl)n2)c(C#N)c1C | inconclusive: 4.47 µM [inhibitor, full curve] | –
COC(=O)CCC(=O)OC1(C)C(=O)C=C2C=C(c3ccc(C#N)cc3)OC=C2C1=O (stereo not given) | inconclusive: 5.01 µM [inhibitor, full curve] | –
CC(=O)C1=C(c2ccc(C)c(C)c2)N(C(C)=O)n2c(nnc2-c2ccc(Cl)cc2)S1 | inconclusive: 8.91 µM [inhibitor, partial curve] | –
Cc1cccc(OCC(=O)Nc2ccc3c(c2)OCO3)c1C | inconclusive: 25.1 µM [inhibitor, partial curve] | –
CCc1ccc(C(=O)Cn2ncc(Cl)c(Cl)c2=O)cc1 | inconclusive: 14.1 µM [inhibitor, partial curve] | –
Cc1nn(CC(=O)NCc2cccc3ccccc23)c(=O)c2ccccc12 | – | inactive: -1.07%
Cc1csc2nc(COc3ccccc3NC(=O)c3ccc(C(C)(C)C)cc3)cc(=O)n12 | inconclusive: 14.1 µM [activator, partial curve] | –
CSc1ccc(C(=S)N2CCN(CCO)CC2)cc1 | – | inactive: 1.57%
CN1C(=O)c2ccc(N3CCCC3)cc2C1=O | inconclusive: 17.8 µM [inhibitor, partial curve] | –
Cc1cccc2c1-c1sc(C(=O)N(C)c3cccc(C(F)(F)F)c3)cc1CO2 | inconclusive: 10 µM [inhibitor, partial curve] | –
CCC(=O)N1N=C(c2ccc(C)o2)CC1c1ccc(Br)cc1 (stereo not given) | – | inactive: -9.27%
CC(/C=C/c1ccccc1)=N\Nc1ccccc1[N+](=O)[O-] | inconclusive: 2.82 µM [inhibitor, full curve] | –
NC(=O)C1CCN(c2cc(Cl)nc(N)n2)CC1 | – | inactive: 1.63%

SMILES | Potency | activity, negative = inhibition
CCC(=O)N=c1n(C)c2ccccc2n1CCOc1ccccc1 | – | inactive: -0.624%
Cc1ccc(C(=O)Nc2ccc(-c3nc4ccccc4s3)cc2C)cc1C | inconclusive: 0.562 µM [inhibitor, full curve] | –
Cc1c(C(=N)C(C#N)C#N)c(=N)oc2c1ccc1ccccc12 | inconclusive: 14.1 µM [inhibitor, partial curve] | –
C=CCSc1[nH]c(=O)cc(C)c1C(N)=O | inconclusive: 0.251 µM [inhibitor, partial curve, poor fit] | –
O=C(c1ccccc1)c1ccc2nc(-c3ccc(NC(=O)c4ccccc4F)cc3)[nH]c2c1 | inconclusive: 0.708 µM [inhibitor, full curve, poor fit] | –
O=C(COC(=O)c1ccc(O)cc1)Nc1ccccc1[N+](=O)[O-] | inconclusive: 31.6 µM [inhibitor, single point] | –
COC(=O)c1cccc(Nc2cc(C)nc(-c3ccccc3O)n2)c1 | inconclusive: 20 µM [inhibitor, partial curve] | –
O=[N+]([O-])c1ccc2c(c1)nc1n2CCN(C2CCCCC2)C1 | inconclusive: 20 µM [inhibitor, single point] | –
O=C(N/N=C/c1cccnc1)c1ccc([N+](=O)[O-])cc1Cl | inconclusive: 28.2 µM [inhibitor, partial curve] | –
CN(C)CCCN1c2ccccc2CCc2ccc(Cl)cc21 | inconclusive: 11.2 µM [inhibitor, partial curve] | –
Cn1c2c(c3ccccc31)CC/C2=N\O | inconclusive: 17.8 µM [inhibitor, partial curve] | –
O=C(c1ccc(CSc2nc3ccncc3[nH]2)cc1)N1CCCCC1 | – | inactive: -10.2%
COc1ccc(-c2cn[nH]c2N)cc1 | inconclusive: 25.1 µM [inhibitor, partial curve] | –
CC(C)N1C(=O)CC2(CC[N+](C)(CCOC(=O)C(c3ccccc3)c3ccccc3)CC2)C1=O (stereo not given) | – | inactive: -14%
O=C(NCc1cccs1)c1nc2c(nnn2Cc2ccc(F)cc2)c(=O)[nH]1 | – | inactive: 5.11%
COc1ccc(Nc2cccccc2=O)cc1 | inconclusive: 28.2 µM [inhibitor, partial curve] | –
CCOCC(=O)Nc1cc(S(=O)(=O)N2CCOCC2)ccc1N1CCCCC1 | inconclusive: 28.2 µM [inhibitor, partial curve] | –
O=C(NCc1ccccc1)c1ccc(CSc2nc3cccnc3n2Cc2cccc(F)c2)cc1 | – | inactive: 0.956%
COc1ccc(OC)c(C2CC(c3c(-c4ccccc4)c4cc(Cl)ccc4[nH]c3=O)=NN2S(C)(=O)=O)c1 (stereo not given) | – | inactive: -5.84%
COc1ccc(C)cc1-n1nnc(-c2nc(-c3ccccc3Cl)no2)c1N | – | inactive: 1.17%
CN(C)c1nc(OCCNC(=O)COc2ccccc2Cl)nc(N(C)C)n1 | – | inactive: -2.57%
CCOC(=O)Cn1c2ccc(OC)cc2c2nc3ccccc3nc21 | inconclusive: 3.55 µM [inhibitor, full curve] | –
COc1cc2nc(C3CCC3)nc(N3CCN(c4ccccn4)CC3)c2cc1OC | – | inactive: -3.68%
Cc1cccc(C(=O)N2CCc3cc(CNS(=O)(=O)c4ccc(Cl)s4)ccc32)c1 | – | inactive: 2.86%

SMILES | Potency | activity, negative = inhibition
Cc1ccccc1OCC(=O)Nc1ccc(-c2nc3ncccc3o2)cc1 | inconclusive: 0.501 µM [inhibitor, full curve] | –
COC(=O)c1ccc(COc2ccc(C)cc2[N+](=O)[O-])o1 | inconclusive: 56.2 µM [inhibitor, partial curve, poor fit] | –
Cc1cccc(C)c1Nc1nnc(SCC(=O)c2ccc3c(c2)NC(=O)CO3)s1 | inconclusive: 17.8 µM [inhibitor, partial curve] | –
CC(=O)Nc1ccc(-c2cn3ccsc3n2)cc1 | – | inactive: -17.6%
C/C(=N\Nc1ccc(S(=O)(=O)Nc2ccccc2)cc1[N+](=O)[O-])c1ccc(N2CCOCC2)cc1 | inconclusive: 2.51 µM [inhibitor, full curve] | –
COc1ccc(CNC(=O)CSc2nnc3c(Cl)cc(C(F)(F)F)cn23)cc1OC | inconclusive: 25.1 µM [inhibitor, single point] | –
CCCOc1ccc2oc(=O)c3c(c2c1)CCCN3C(=O)CN1CCc2ccccc2C1 | inconclusive: 22.4 µM [inhibitor, partial curve] | –
Cc1ccc(C)c(OCC(=O)Nc2ccc3c(c2)OCO3)c1 | inconclusive: 15.8 µM [inhibitor, partial curve] | –
COc1cc(-c2nc3ccc(N4CCN(C)CC4)cc3[nH]2)cc(OC)c1OC | inconclusive: 28.2 µM [inhibitor, single point] | –
CCCOc1ccc(CNC(=O)Cn2ncn3c(cc4sc(CC)cc43)c2=O)cc1 | inconclusive: 0.631 µM [inhibitor, full curve, poor fit] | –
O=C(O)c1ccc(NCCc2ccc(Cl)cc2)c([N+](=O)[O-])c1 | active: 5.62 µM | –
Nc1ncnc(Oc2ccccc2F)c1[N+](=O)[O-] | inconclusive: 22.4 µM [inhibitor, partial curve, poor fit] | –
COc1ccc(O)c(/C=N/NC(=S)Nc2cccnc2)c1 | inconclusive: 28.2 µM [inhibitor, partial curve] | –
O=S(=O)(c1ccc(NC(=S)N/N=C/c2ccc(Oc3ccccc3)cc2)cc1)N1CCOCC1 | – | inactive: 4.23%
CCN(CC)c1ccc(/C=N/OCC(=O)Nc2cccc(C)c2)cc1 | inconclusive: 17.8 µM [inhibitor, partial curve] | –
O=C(C1CCC(CNS(=O)(=O)c2cccc3cccnc23)CC1)N1CCc2ccccc21 (stereo not given) | – | inactive: -11.5%
O=C1/C(=C/c2ccco2)Oc2c1ccc(O)c2CN1CCCCC1 | inconclusive: 39.8 µM [activator, single point] | –
CC(=O)Nc1ccc(Nc2cc(C)nc3c(-c4ccccc4)c(C)nn23)cc1 | inconclusive: 17.8 µM [inhibitor, partial curve] | –
COc1cc(C(=O)NC(=S)Nc2ccc(NC(=O)c3ccco3)cc2)cc(OC)c1OC | – | inactive: -16.1%
CC1(C)CC(=O)C(C2NCCc3ccccc32)=C(O)C1 (stereo not given) | inconclusive: 10 µM [inhibitor, partial curve] | –
Cc1ccc(NC(=O)CCC(=O)NNC(=O)/C=C/C(=O)O)c(C)c1 | inconclusive: 14.1 µM [inhibitor, partial curve, poor fit] | –
O=C1C2C3C=CC(CC3)C2C(=O)N1/N=C/c1ccc(O)c(O)c1 (stereo not given) | – | inactive: -8.55%

Reference: PubChem BioAssay AID1460 (National Center for Advancing Translational Sciences (NCATS), 2008)
